# Source: article PMC9911399, “Two distinct binding modes provide the RNA-binding protein RbFox with extraordinary sequence specificity”
# Changes are numbered by the printed parent chain; changes in the protein carry UniProt numbers. This is one part of the list.
# T1: RBFOX1 RRM RbFoxmut (Fox-RRM*) (Homo sapiens, UniProt Q9NWB1 109-208, R118D;E147R;N151S;E152T)
# T1 sequence: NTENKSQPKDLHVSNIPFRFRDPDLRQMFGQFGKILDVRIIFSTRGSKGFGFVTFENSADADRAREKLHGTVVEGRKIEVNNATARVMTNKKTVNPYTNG
# B1: GUUCUCC (DNA:RNA)
# RNA: GGGAGACCGGAAUUCAGAUUGUCCGUUCUCCUUAAAUCCCGUCGUAGCCACCA
# DNA 1: CAATCTGAATTCCGGTCTCCC
# DNA 2: TGGTGGCTACGACGGGATT
# B2: GGAAUAG (DNA:RNA)
# RNA: B1 RNA with U26G, U27A, C28A, C30A, C31G
# DNA 1: CAATCTGAATTCCGGTCTCCC
# DNA 2: TGGTGGCTACGACGGGATT
# B3: UUUCGAG (DNA:RNA)
# RNA: B1 RNA with G25U, U29G, C30A, C31G
# DNA 1: CAATCTGAATTCCGGTCTCCC
# DNA 2: TGGTGGCTACGACGGGATT
# B4: GUAGACA (DNA:RNA)
# RNA: B1 RNA with U27A, C28G, U29A, C31A
# DNA 1: CAATCTGAATTCCGGTCTCCC
# DNA 2: TGGTGGCTACGACGGGATT
# B5: GUUACGC (DNA:RNA)
# RNA: B1 RNA with C28A, U29C, C30G
# DNA 1: CAATCTGAATTCCGGTCTCCC
# DNA 2: TGGTGGCTACGACGGGATT
# B6: CGUACUA (DNA:RNA)
# RNA: B1 RNA with G25C, U26G, C28A, U29C, C30U, C31A
# DNA 1: CAATCTGAATTCCGGTCTCCC
# DNA 2: TGGTGGCTACGACGGGATT
# B7: AAUAUUU (DNA:RNA)
# RNA: B1 RNA with G25A, U26A, C28A, C30U, C31U
# DNA 1: CAATCTGAATTCCGGTCTCCC
# DNA 2: TGGTGGCTACGACGGGATT
# B8: CCCCUUU (DNA:RNA)
# RNA: B1 RNA with G25C, U26C, U27C, C30U, C31U
# DNA 1: CAATCTGAATTCCGGTCTCCC
# DNA 2: TGGTGGCTACGACGGGATT
# B9: UGGGCCC (DNA:RNA)
# RNA: B1 RNA with G25U, U26G, U27G, C28G, U29C
# DNA 1: CAATCTGAATTCCGGTCTCCC
# DNA 2: TGGTGGCTACGACGGGATT
# B10: GACCCAG (DNA:RNA)
# RNA: B1 RNA with U26A, U27C, U29C, C30A, C31G
# DNA 1: CAATCTGAATTCCGGTCTCCC
# DNA 2: TGGTGGCTACGACGGGATT
# B11: UUCGUAC (DNA:RNA)
# RNA: B1 RNA with G25U, U27C, C28G, C30A
# DNA 1: CAATCTGAATTCCGGTCTCCC
# DNA 2: TGGTGGCTACGACGGGATT
# B12: UUGCUUA (DNA:RNA)
# RNA: B1 RNA with G25U, U27G, C30U, C31A
# DNA 1: CAATCTGAATTCCGGTCTCCC
# DNA 2: TGGTGGCTACGACGGGATT
# B13: GUGUUGA (DNA:RNA)
# RNA: B1 RNA with U27G, C28U, C30G, C31A
# DNA 1: CAATCTGAATTCCGGTCTCCC
# DNA 2: TGGTGGCTACGACGGGATT
# B14: AUCGAGC (DNA:RNA)
# RNA: B1 RNA with G25A, U27C, C28G, U29A, C30G
# DNA 1: CAATCTGAATTCCGGTCTCCC
# DNA 2: TGGTGGCTACGACGGGATT
# B15: GCACGCU (DNA:RNA)
# RNA: B1 RNA with U26C, U27A, U29G, C31U
# DNA 1: CAATCTGAATTCCGGTCTCCC
# DNA 2: TGGTGGCTACGACGGGATT
# B16: CGUAUAA (DNA:RNA)
# RNA: B1 RNA with G25C, U26G, C28A, C30A, C31A
# DNA 1: CAATCTGAATTCCGGTCTCCC
# DNA 2: TGGTGGCTACGACGGGATT
# B17: ACCGUGC (DNA:RNA)
# RNA: B1 RNA with G25A, U26C, U27C, C28G, C30G
# DNA 1: CAATCTGAATTCCGGTCTCCC
# DNA 2: TGGTGGCTACGACGGGATT
# B18: UACCGCA (DNA:RNA)
# RNA: B1 RNA with G25U, U26A, U27C, U29G, C31A
# DNA 1: CAATCTGAATTCCGGTCTCCC
# DNA 2: TGGTGGCTACGACGGGATT
# B19: GCCAGCU (DNA:RNA)
# RNA: B1 RNA with U26C, U27C, C28A, U29G, C31U
# DNA 1: CAATCTGAATTCCGGTCTCCC
# DNA 2: TGGTGGCTACGACGGGATT
# B20: AUGUUUU (DNA:RNA)
# RNA: B1 RNA with G25A, U27G, C28U, C30U, C31U
# DNA 1: CAATCTGAATTCCGGTCTCCC
# DNA 2: TGGTGGCTACGACGGGATT
# B21: UCCGGCA (DNA:RNA)
# RNA: B1 RNA with G25U, U26C, U27C, C28G, U29G, C31A
# DNA 1: CAATCTGAATTCCGGTCTCCC
# DNA 2: TGGTGGCTACGACGGGATT
# B22: GAGAAAC (DNA:RNA)
# RNA: B1 RNA with U26A, U27G, C28A, U29A, C30A
# DNA 1: CAATCTGAATTCCGGTCTCCC
# DNA 2: TGGTGGCTACGACGGGATT
# B23: CAUGCUG (DNA:RNA)
# RNA: B1 RNA with G25C, U26A, C28G, U29C, C30U, C31G
# DNA 1: CAATCTGAATTCCGGTCTCCC
# DNA 2: TGGTGGCTACGACGGGATT
# B24: CUCCGGA (DNA:RNA)
# RNA: B1 RNA with G25C, U27C, U29G, C30G, C31A
# DNA 1: CAATCTGAATTCCGGTCTCCC
# DNA 2: TGGTGGCTACGACGGGATT
# B25: CGCUCAG (DNA:RNA)
# RNA: GGGAGACCGGAAUUCAGAUUGUCCCGCUCAGUUAAAUCCCGUCGUAGCCACCA
# DNA 1: CAATCTGAATTCCGGTCTCCC
# DNA 2: TGGTGGCTACGACGGGATT
# B26: GGGCUCG (DNA:RNA)
# RNA: B1 RNA with U26G, U27G, C31G
# DNA 1: CAATCTGAATTCCGGTCTCCC
# DNA 2: TGGTGGCTACGACGGGATT
# B27: CGCCCCC (DNA:RNA)
# RNA: B25 RNA with U28C, A30C, G31C
# DNA 1: CAATCTGAATTCCGGTCTCCC
# DNA 2: TGGTGGCTACGACGGGATT
# B28: AUCCCUC (DNA:RNA)
# RNA: B1 RNA with G25A, U27C, U29C, C30U
# DNA 1: CAATCTGAATTCCGGTCTCCC
# DNA 2: TGGTGGCTACGACGGGATT
# B29: UAAGCUA (DNA:RNA)
# RNA: B25 RNA with C25U, G26A, C27A, U28G, A30U, G31A
# DNA 1: CAATCTGAATTCCGGTCTCCC
# DNA 2: TGGTGGCTACGACGGGATT
# B30: UGGGUCG (DNA:RNA)
# RNA: B25 RNA with C25U, C27G, U28G, C29U, A30C
# DNA 1: CAATCTGAATTCCGGTCTCCC
# DNA 2: TGGTGGCTACGACGGGATT
# B31: AUGACGG (DNA:RNA)
# RNA: B25 RNA with C25A, G26U, C27G, U28A, A30G
# DNA 1: CAATCTGAATTCCGGTCTCCC
# DNA 2: TGGTGGCTACGACGGGATT
# Biological target: T1, RBFOX1 RRM RbFoxmut (Fox-RRM*)
# Test: EMSA; HiTS-Eq, 1 nM pool, 10 min; buffer printed only for the single-RNA assays: 10 mM Tris pH 7.5, 150 mM NaCl, 3.4 mM EDTA, 0.001% NP-40, 30 C
# Conditions: tags: His6 N-terminal (pET28a); label: 5' 32P
# In short: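 Purified RbFox RRM, wild type or mutant, was incubated for 10 min in 50 µL with 1 nM of a 5′-radiolabelled RNA pool carrying 7 randomized nucleotides, whose flanks were annealed to DNA oligonucleotides, over a series of increasing protein concentrations. Unbound RNA was resolved on 8% native PAGE, cut out, reverse-transcribed, barcoded by PCR and sequenced on an Illumina HiSeq 2500. Relative association constants were derived from changes in read counts for each RNA species versus the control reaction and normalised to the cognate motif.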
row,Binder,binding signal
1,B1,0.0692 KA relative to UGCAUGU
2,B2,0.133 KA relative to UGCAUGU
3,B3,0.107 KA relative to UGCAUGU
4,B4,0.0639 KA relative to UGCAUGU
5,B5,0.126 KA relative to UGCAUGU
6,B6,0.0884 KA relative to UGCAUGU
7,B7,0.117 KA relative to UGCAUGU
8,B8,0.0777 KA relative to UGCAUGU
9,B9,0.0962 KA relative to UGCAUGU
10,B10,0.0716 KA relative to UGCAUGU
11,B11,0.134 KA relative to UGCAUGU
12,B12,0.15 KA relative to UGCAUGU
13,B13,0.101 KA relative to UGCAUGU
14,B14,0.108 KA relative to UGCAUGU
15,B15,0.128 KA relative to UGCAUGU
16,B16,0.0769 KA relative to UGCAUGU

row,Binder,binding signal
1,B17,0.129 KA relative to UGCAUGU
2,B18,0.132 KA relative to UGCAUGU
3,B19,0.0901 KA relative to UGCAUGU
4,B20,0.134 KA relative to UGCAUGU
5,B21,0.0909 KA relative to UGCAUGU
6,B22,0.0662 KA relative to UGCAUGU
7,B23,0.124 KA relative to UGCAUGU
8,B24,0.0672 KA relative to UGCAUGU
9,B25,0.105 KA relative to UGCAUGU
10,B26,0.256 KA relative to UGCAUGU
11,B27,0.0547 KA relative to UGCAUGU
12,B28,0.0705 KA relative to UGCAUGU
13,B29,0.0783 KA relative to UGCAUGU
14,B30,0.375 KA relative to UGCAUGU
15,B31,0.0993 KA relative to UGCAUGU
